# Assay results published in the supplement of paper PMC12645437, “Orthogonal IMiD-Degron Pairs Induce Selective Protein Degradation in Cells” (ACS Chemical Biology, 2025).
# The list shows a part of the results.
# Molecular target: no compound (DMSO)
# Experiment: log2 fold change of degron read counts, EGFP-low vs EGFP+ sorted cells; higher = lower degron-EGFP level without compound (poor expression or instability)
# Settings: compound: DMSO control; 18 h
# 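Also: jurkat cells carrying a lentiviral library of mutant zinc finger degrons fused to EGFP plus mCherry, mCherry+ cells FACS sorted, degron abundance counted by next-generation sequencing.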
row,Sequence,log2 fold change of degron read counts
1,FDCDQCGALFTQKGNLLRHIKL,-0.443
2,FYCNQCGHNFTQKGNLLRHIKL,0.272
3,FECPICGALFTQKGNLLRHIKL,-0.0829
4,LVCNQCGFLCTQKGNLLRHIKL,0.943
5,LGCPICGFLCTQKGNLLRHIKL,1.71
6,FNCDQCGADFTQKGNLLRHIKL,-1.44
7,LLCEICGFECTQKGNLLRHIKL,-0.461
8,LKCPICGFTCTQKGNLLRHIKL,0.176
9,FTCEICGAQFTQKGNLLRHIKL,-1.13
10,FWCPVCGAGFTQKGNLLRHIKL,1.01
11,FYCPVCGAWFTQKGNLLRHIKL,0.769
12,FVCEICGHRFTQKGNLLRHIKL,-1.35
13,FKCNQCGAPFTQKGNLLRHIKL,-1
14,FNCSVCGHWFTQKGNLLRHIKL,1.38
15,FRCNICGAIFTQKGNLLRHIKL,-0.0323
16,FVCEICGATFTQKGNLLRHIKL,-2.3

row,Sequence,log2 fold change of degron read counts
1,LDCNQCGFFCTQKGNLLRHIKL,1.9
2,FRCPICGALFTQKGNLLRHIKL,0.34
3,FICNICGAMFTQKGNLLRHIKL,0.158
4,FNCEVCGANFTQKGNLLRHIKL,-2.07
5,FTCEICGHNFTQKGNLLRHIKL,-1.71
6,FGCPICGRKFTQKGNLLRHIKL,-0.984
7,FKCPICGRKFTQKGNLLRHIKL,-1.59
8,FACNQCGHDFTQKGNLLRHIKL,0.0501
9,LECEICGFCCTQKGNLLRHIKL,-0.612
10,LSCPICGFPCTQKGNLLRHIKL,1.16
11,LHCEICGFKCTQKGNLLRHIKL,-0.746
12,FKCNQCGRYFTQKGNLLRHIKL,0.366
13,FICPVCGALFTQKGNLLRHIKL,0.146
14,LDCNQCGFDCTQKGNLLRHIKL,-0.135
15,LKCPICGFRCTQKGNLLRHIKL,0.15
16,LICPICGFECTQKGNLLRHIKL,0.404
